Results on 18 compounds are retold here after patent US20230227428A1 (Anaxis Pharma Pty Ltd, priority 2020, published 2023).

Bounds are passed on as bounds.

For assay [1], the system named is U937 human histiocytic leukemia cell line. Briefly: Cellular assay: inhibition of TSQ induced necroptosis, 384 well plate format. The note with it: U-937, U937 cells, TSQ cocktail (TNF, Smac mimetic, Q-VD-OPh), 48 hours, CellTitre-Glo, read-out: Inhibition of TSQ-induced necroptosis (IC50 cell-based assay). The method, then: Cellular Assay: Screening Compounds for Inhibition of TSQ Induced Necroptosis, 384 Well Plate Format.
(§1) Cell Line ID: U937 human histiocytic leukemia cell line.
Cell Concentration (cells/well): Final cell density is 20000 cells per well.
Cell growth medium: HT-RPMI medium+7.4% Fetal Bovine Serum (FBS). Cells are cultured in Corning 150 cm^2 tissue culture flasks with vented caps at 37° C./5% CO2.
Incubation: Plates were incubated at 37° C./5% CO2 in a humidified incubator for 48 hours following addition of compounds and death stimuli (TSQ cocktail).
Compound concentration: 36 μM starting concentration, 1:3 dilution, 10 point
DMSO final concentration (% v/v): 0.3%.
Compounds in TSQ cocktail (T: TNF; S: Smac mimetic; Q: Q-VD-OPh) and their final concentrations:
hTNF-Fc (100 ng/ml)—produced by standard procedures as shown in Bossen et al., J Biol Chem, 2006, 281(20), 13964-13971.
Compound A (500 nM)—Smac mimetic, Tetralogic and SYNthesis med chem Q-VD-OPh (10 μM)—MP Biomedicals
(§2) The cellular assay was carried out according to the following steps: • 1. Each well was prepared by sequential addition of: • a. DMSO (control; columns 1-2 and 23-24) or compound in DMSO—addition was performed using acoustic transfer of nl volumes of stock compound to give final test concentrations of 36, 12, 4, 1.3, 0.44, 0.148, 0.049, 0.016, 0.005 and 0.002 μM. All wells were backfilled with DMSO to a final total volume in the well of 100 nl. • b. Following compound/DMSO addition in step (a), 40 μL of cell suspension (5×10^5 cells/mL) was added to provide a final cell concentration of 20,000 cells per well, and • c. Following cell addition in step (b), 10 μL of 5×TSQ cocktail (except to positive controls; […]) was added to each well. • 2. After 48 hours, plate was removed from the 37° C. incubator and equilibrated to room temperature for 45 minutes. • 3. 15 μL of room temperature CellTitre-Glo2™ (Promega™) was added to each well. • 4. Shook plates for 2 minutes (˜600 rpm) and incubated at room temperature for 15 minutes to allow signal to stabilise. • 5. Read luminescence readout on a plate reader.
Percent viability was calculated for each compound according to equation (2):
% viability=100×((RawData−NSA)/(TA−NSA) (2)
wherein RawData is the readout of any cell containing a compound of the invention TA is the total activity provided by the luminescence readout from DMSO only wells (columns 2 and 24)=100% viability NSA is the non-specific activity provided by DMSO+TSQ wells (columns 1 and 23)=0% viability
(§3) Curve fitting: 10-point titration curves are fitted with the 4-parameter logistic nonlinear regression model and the IC50 reported is the inflection point of the curve
Analysis: Data was loaded into Dotmatics™ and visualised using the Tibco® Spotfire™ software. points titration curve were fitted with the 4 parameter logistic nonlinear regression model and the IC50 reported reflect the inflection point of the curve for curve fitting.
Assay involving the TSQ cocktail (T: TNF; S: Smac mimetic; Q: Q-VD-OPh): TSQ treatment ensures that cells specifically undergo necroptotic cell death. TNF activates the TNF receptor, Smac mimetic directs the signal away from proinflammatory signaling and toward the RIP1/RIP3-mediated cell death pathways, and Q-VD-OPh ensures that the apoptotic response is blocked leaving only the programmed necrosis response. The compounds' activity (solution in DMSO) tested in this TSQ-induced assay was evaluated by determining the number of viable cells in culture by measuring the amount of ATP present as measured by CelltiterGlo.

For another assay, the system named is U937 cells. Briefly: Counter screen: cell viability of U937 cells treated with compound without the TSQ cocktail (off-target effect). As to conditions: Homo sapiens, U-937, compound in DMSO without the TSQ cocktail, cell viability by CelltiterGlo, read-out: Off-target effect (IC50 cell-based assay). Here is the method: as §1, §2, §3
Counter screen: In parallel, all compounds were tested for their ability to affect cell viability. The same U937 cells were treated with compound in DMSO without the TSQ cocktail. This counter screen enabled evaluation of off-target effects. In this case, cell viability was measured by CelltiterGlo.
(In general: A counterscreen serves to expose hits that act by an unwanted route or on another target.)

In the case of `NC(=O)c1c(-c2ccc(NC(=O)Cc3ccc(C(F)(F)F)cc3)cc2)n[nH]c1Nc1ccccn1` [Compound 1, 3-(4-(2-(4-(trifluoromethyl)phenyl)acetamido)phenyl)-5-(pyridin-2-ylamino)-1H-pyrazole-4-carboxamide], the half-inhibitory concentration (IC50) – broadly, the midpoint of a concentration-inhibition curve – in assay [1] was in the range of 100 to 1000 nM.

As to `NC(=O)c1c(-c2ccc(NC(=O)CC3CCCCC3)cc2)n[nH]c1Nc1ccccn1` [Compound 8, 3-(4-(2-cyclohexyl-acetamido)phenyl)-5-(pyridin-2-ylamino)-1H-pyrazole-4-carboxamide], the 50% inhibitory concentration (IC50) in assay [1] was greater than 1000 nM.

Consider `COc1cc(Nc2[nH]nc(-c3ccc(NC(=O)N4CCCC(c5ccccc5)C4)cc3)c2C(N)=O)ccn1` (stereo not drawn) [Compound 59, N-(4-(4-carbamoyl-5-((2-methoxypyridin-4-yl)amino)-1H-pyrazol-3-yl)phenyl)-3-phenylpiperidine-1-carboxamide], for which the IC50 in assay [1] was 100 to 1000 nM; in the assay on U937 cells, greater than 1000 nM.

Turning to `COc1cc(Nc2[nH]nc(-c3ccc(NC(=O)N4CCC[C@@H](c5ccccc5)C4)cc3)c2C(N)=O)ccn1` [Compound 60, (S)-N-(4-(4-carbamoyl-5-((2-methoxypyridin-4-yl)amino)-1H-pyrazol-3-yl)phenyl)-3-phenylpiperidine-1-carboxamide], the IC50 in assay [1] was 100 to 1000 nM; with U937 cells, greater than 1000 nM.

Regarding `COc1cc(Nc2[nH]nc(-c3ccc(NC(=O)N4CCC[C@H](c5ccccc5)C4)cc3)c2C(N)=O)ccn1` [Compound 61, (R)-N-(4-(4-carbamoyl-5-((2-methoxypyridin-4-yl)amino)-1H-pyrazol-3-yl)phenyl)-3-phenylpiperidine-1-carboxamide], the figures for the 50% inhibitory concentration (IC50) (in assay [1]; in the assay on U937 cells) were less than 100 nM and greater than 1000 nM, respectively.

As for `COc1cc(Nc2[nH]nc(-c3ccc(NC(=O)NCCc4ccccc4)cc3)c2C(N)=O)ccn1` [Compound 66, 5-[(2-methoxypyridin-4-yl)amino]-3-(4-{[(2-phenylethyl)carbamoyl]amino}phenyl)-1H-pyrazole-4-carboxamide], the figures for the half-maximal inhibitory concentration (IC50) (in assay [1]; in the assay with U937 cells) were 100 to 1000 nM and greater than 1000 nM, respectively.

With `COc1cc(Nc2[nH]nc(-c3ccc(NC(=O)N(C)CCc4ccccc4)cc3)c2C(N)=O)ccn1` [Compound 67, 5-((2-methoxypyridin-4-yl)amino)-3-(4-(3-methyl-3-phenethylureido)phenyl)-1H-pyrazole-4-carboxamide], the IC50 (in assay [1]; with U937 cells) was greater than 1000 nM throughout.

For the compound `NC(=O)c1c(-c2ccc(NC(=O)N3CCC[C@H](c4ccc(F)cc4)C3)cc2)n[nH]c1Nc1cccc(C(F)(F)F)n1` [Compound 78, (R)-N-(4-(4-carbamoyl-5-((6-(trifluoromethyl)pyridin-2-yl)amino)-1H-pyrazol-3-yl)phenyl)-3-(4-fluorophenyl)piperidine-1-carboxamide], the figures for the IC50 (in assay [1]; in the assay with U937 cells) were less than 100 nM and greater than 1000 nM, respectively.

Take `NC(=O)c1c(-c2ccc(NC(=O)N3CCCC(c4ccccc4)C3)cc2)n[nH]c1Nc1cnccn1` (stereo not drawn) [Compound 89, N-(4-(4-carbamoyl-5-(pyrazin-2-ylamino)-1H-pyrazol-3-yl)phenyl)-3-phenylpiperidine-1-carboxamide]: the IC50 in assay [1] is 100 to 1000 nM; in the assay on U937 cells it was greater than 1000 nM.

As to `NC(=O)c1c(-c2ccc(NC(=O)N3CCC[C@H](c4ccccc4)C3)cc2)n[nH]c1Nc1cnccn1` [Compound 90, (3R)-N-(4-{4-carbamoyl-5-[(pyrazin-2-yl)amino]-1H-pyrazol-3-yl}phenyl)-3-phenylpiperidine-1-carboxamide], the IC50 in assay [1] is less than 100 nM; in the assay with U937 cells it was greater than 1000 nM.

`NC(=O)c1c(-c2ccc(NC(=O)N3CCC[C@@H](c4ccccc4)C3)cc2)n[nH]c1Nc1cnccn1` [Compound 91, (3S)-N-(4-{4-carbamoyl-5-[(pyrazin-2-yl)amino]-1H-pyrazol-3-yl}phenyl)-3-phenylpiperidine-1-carboxamide]: the IC50 (in assay [1]; with U937 cells) was greater than 1000 nM in each case.

As for `NC(=O)c1c(-c2ccc(NC(=O)N3CCCC(c4ccc(Cl)cc4)C3)cc2)n[nH]c1Nc1cnccn1` (stereo not drawn) [Compound 92, N-(4-(4-carbamoyl-5-(pyrazin-2-ylamino)-1H-pyrazol-3-yl)phenyl)-3-(4-chlorophenyl)piperidine-1-carboxamide], the figures for the IC50 (in assay [1]; with U937 cells) were 100 to 1000 nM and greater than 1000 nM, respectively.

Turning to `NC(=O)c1c(-c2ccc(NC(=O)N3CCCC(c4ccc(F)cc4)C3)cc2)n[nH]c1Nc1cnccn1` (stereo not drawn) [Compound 94, N-(4-(4-carbamoyl-5-(pyrazin-2-ylamino)-1H-pyrazol-3-yl)phenyl)-3-(4-fluorophenyl)piperidine-1-carboxamide], the IC50 was less than 100 nM in assay [1] and greater than 1000 nM in the assay on U937 cells.

For `COc1cccc(C2CCCN(C(=O)Nc3ccc(-c4n[nH]c(Nc5cnccn5)c4C(N)=O)cc3)C2)c1` (stereo not drawn) [Compound 97, N-(4-(4-carbamoyl-5-(pyrazin-2-ylamino)-1H-pyrazol-3-yl)phenyl)-3-(3-methoxyphenyl)piperidine-1-carboxamide], the results for the IC50 (in assay [1]; with U937 cells) were less than 100 nM and greater than 1000 nM, respectively.

Consider `NC(=O)c1c(-c2ccc(NC(=O)N3CCCC(c4cccc(C(F)(F)F)c4)C3)cc2)n[nH]c1Nc1cnccn1` (stereo not drawn) [Compound 98, N-(4-(4-carbamoyl-5-(pyrazin-2-ylamino)-1H-pyrazol-3-yl)phenyl)-3-(3-(trifluoromethyl)phenyl)piperidine-1-carboxamide], for which the IC50 is less than 100 nM in assay [1] and greater than 1000 nM in the assay with U937 cells.

`COc1cc(Nc2[nH]nc(-c3ccc(NC(=O)N4CCC[C@H]4c4ccccc4)cc3)c2C(N)=O)ccn1` [Compound 103, (S)-5-((2-methoxypyridin-4-yl)amino)-3-(4-(2-phenylpyrrolidine-1-carboxamido)phenyl)-1H-pyrazole-4-carboxamide]: the concentration for half-maximal inhibition (IC50) (in assay [1]; in the assay on U937 cells) was greater than 1000 nM in each case.

Regarding `NC(=O)c1c(-c2ccc(NC(=O)Nc3ccc(OC(F)(F)F)cc3)cc2)n[nH]c1Nc1ccncc1` [Compound 109, 5-(pyridin-4-ylamino)-3-(4-(3-(4-(trifluoromethoxy)phenyl)ureido)phenyl)-1H-pyrazole-4-carboxamide], the figures for the IC50 (in assay [1]; with U937 cells) were 100 to 1000 nM and greater than 1000 nM, respectively.

On to `NC(=O)c1c(-c2ccc(NC(=O)Nc3ccc(OC(F)(F)F)cc3)cc2)n[nH]c1Nc1cccnc1` [Compound 110, 5-(pyridin-3-ylamino)-3-(4-(3-(4-(trifluoromethoxy)phenyl)ureido)phenyl)-1H-pyrazole-4-carboxamide], for which, in assay [1], the half-inhibitory concentration (IC50) was in the range of 100 to 1000 nM.
